Test results taken from publication PMC12209437, “Tailoring a novel colorectal cancer stem cell-targeted therapy by inhibiting the SMYD3/c-MYC axis” (Signal Transduction and Targeted Therapy, 2025).

Biological target: T1, full-length HIS-tagged SMYD3 recombinant protein (human, UniProt Q9H7B4 1-428)
T1 construct: SMYD3 (lysine methyltransferase SET and MYND Domain Containing 3), full length, from the plasmid pET28-MHL-SMYD3 (Addgene 32048); no species is printed for the Addgene plasmid; also called HIS-SMYD3; HIS-SMYD3 fusion protein; source: E. coli BL21 (DE3), purified (Dynabeads HIS-Tag Isolation and Pulldown)
T1 sequence (looked up): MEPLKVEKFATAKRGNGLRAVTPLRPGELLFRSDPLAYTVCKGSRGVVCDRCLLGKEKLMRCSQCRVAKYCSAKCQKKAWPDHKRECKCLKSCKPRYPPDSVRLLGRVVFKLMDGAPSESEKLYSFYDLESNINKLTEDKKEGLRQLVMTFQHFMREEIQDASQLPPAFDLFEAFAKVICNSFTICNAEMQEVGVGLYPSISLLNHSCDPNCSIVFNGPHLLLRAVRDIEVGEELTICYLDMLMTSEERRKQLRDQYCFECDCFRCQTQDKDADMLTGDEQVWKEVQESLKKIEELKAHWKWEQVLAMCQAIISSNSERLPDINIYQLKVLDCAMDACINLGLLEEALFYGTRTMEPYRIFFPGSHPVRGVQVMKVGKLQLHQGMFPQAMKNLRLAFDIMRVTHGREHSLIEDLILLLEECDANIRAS
Assay: pull-down; HIS-SMYD3 incubated with recombinant c-MYC or FLAG c-MYC fragments for 1 h at 4 °C, precipitated with Dynabeads HIS-Tag Isolation and Pulldown, washed in buffer A (20 mM Tris-HCl pH 8, 150 mM KCl, 5 mM MgCl2, 0.2 mM EDTA, 10% glycerol, 0.1% NP-40, 1 mM DTT), immunoblot
Settings: both partners purified

- binding result: binds
B1: FLAG c-MYC M1 ([…]) (domain or fragment)
chain: not shown
notes: amplified from p3xFLAG CMV14 c-MYC-WT, itself made from pcDNA3-c-MYC (Addgene 16011); Vector p3xFLAG-CMV14 (Sigma E7908); also called p3xFLAG CMV14 c-MYC-M1
